Measured values taken from PMC7113770 (Antiviral Research, 2018).

System: patient-derived HEV of gts 1–4
Test: Infection of hepatocyte-like cells with primary HEV isolates, HEV RNA copies
Conditions: 10 nM silvestrol for 24 h, 24 h post-infection

COC(=O)[C@H]1[C@@H](O)[C@@]2(O)c3c(OC)cc(O[C@@H]4O[C@@H]([C@H](O)CO)CO[C@H]4OC)cc3O[C@@]2(c2ccc(OC)cc2)[C@@H]1c1ccccc1 [Silvestrol, silvestrol] was tested, and the “reduction of HEV RNA copy numbers in HLCs” value was “confirmed in all major human pathogenic genotypes”.
